# The supplement of paper PMC3334620
# The full ranking holds about 33,000 sequences; the median of “E-score (-0.5 to 0.5)” is about -0.054, and the highest 2% start at about 0.35. This is one part of the list.
# Molecular target: T1, Stb5 (UniProt P38699)
# T1 sequence: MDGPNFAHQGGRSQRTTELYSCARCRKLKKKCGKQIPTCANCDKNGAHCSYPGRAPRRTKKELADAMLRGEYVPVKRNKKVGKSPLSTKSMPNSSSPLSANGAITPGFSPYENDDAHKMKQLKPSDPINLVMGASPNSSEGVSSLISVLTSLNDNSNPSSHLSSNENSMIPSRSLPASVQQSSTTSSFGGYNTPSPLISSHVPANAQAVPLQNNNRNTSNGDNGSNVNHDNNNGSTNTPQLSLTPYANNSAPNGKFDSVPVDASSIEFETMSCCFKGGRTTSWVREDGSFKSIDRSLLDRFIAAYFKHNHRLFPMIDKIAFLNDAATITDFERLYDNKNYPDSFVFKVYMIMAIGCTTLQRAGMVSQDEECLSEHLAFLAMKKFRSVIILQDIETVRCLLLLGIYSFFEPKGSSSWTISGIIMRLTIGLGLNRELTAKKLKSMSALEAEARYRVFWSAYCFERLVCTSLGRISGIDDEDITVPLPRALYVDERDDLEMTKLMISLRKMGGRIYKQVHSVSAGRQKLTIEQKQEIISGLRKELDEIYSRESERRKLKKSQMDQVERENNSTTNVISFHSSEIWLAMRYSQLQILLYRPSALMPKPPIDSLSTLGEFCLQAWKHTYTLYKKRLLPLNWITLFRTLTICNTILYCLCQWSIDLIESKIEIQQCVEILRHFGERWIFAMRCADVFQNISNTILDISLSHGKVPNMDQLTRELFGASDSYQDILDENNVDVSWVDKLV
# Assay: PBM E-score (8-mer binding enrichment) (E-score (-0.5 to 0.5)); higher = stronger / more preferred TF binding; most listed sequences are background and not binding sites
# Conditions: protein concentration: 200 nM; construct: GST-full length
# How it was run: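 Universal all-10-mer Agilent arrays, fresh or stripped once, were converted to double-stranded form by primer extension. GST-tagged yeast transcription factors from PURExpress in vitro transcription/translation, full-length or DNA-binding domain only, were applied at about 100-200 nM and detected with fluorescent anti-GST. After masliner normalisation, the Universal PBM Analysis Suite scored each ungapped eight-base word together with its reverse complement by E-score.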
row,Sequence,PBM E-score
1,GCTGTCCA,-0.0587
2,AAGCTAGT,-0.221
3,AACCAATT,-0.165
4,AGCGTCGG,0.318
5,TAATACCA,0.1
6,ACAGAGAG,-0.365
7,AACTTCTA,-0.212
8,CCAGTTTA,-0.129
9,ACGAGACC,0.0349
10,CGCAGGCG,0.0835
11,CCATGTTA,-0.174
12,AGCGATAG,-0.221
13,CCTCGTAA,-0.127
14,TAGGCGAA,-0.0831
15,AGGACCTA,0.141
16,AACAACGA,-0.00382
17,CAGGGCGG,0.308
18,AATGACAA,-0.228
19,AGGTCACA,-0.233
20,GCGGTCAC,0.243
21,ACTAGTGG,-0.134
22,AGTCTGTC,-0.255

row,Sequence,PBM E-score
1,AGAGACGG,0.0766
2,AGGTGTGA,0.00067
3,AAGAGGGA,-0.362
4,ATAGCAAC,-0.00788
5,CGACGCAA,0.11
6,TCGCCGCA,0.228
7,GGGAGAAA,0.0145
8,GTGTATTA,-0.0519
9,CAGGTTGC,-0.193
10,GGCCACCC,-0.0691
11,CCGGCTAG,0.107
12,AGTGCACT,-0.151
13,AGGCTGCA,-0.26
14,ACTGAACT,-0.204
15,GACCTATA,0.204
16,GGCCGACA,0.327
17,GGACAGCC,-0.0341
18,CGCAGCCC,0.0141
19,GCGCTAGC,-0.0781
20,AACCCTCA,-0.205
21,CGGCTTCC,0.0242
22,AGCGGCCG,0.252

row,Sequence,PBM E-score
1,ATCAATCA,-0.139
2,CGGCTGAA,-0.0353
3,CACATTGG,-0.218
4,GCAAGACC,0.146
5,CCTTCGGC,0.134
6,TAGGTTGA,-0.128
7,ATCTGGAG,-0.156
8,CCGTGTGC,0.206
9,ACGCTCCT,-0.172
10,CTGTCTCC,-0.0125
11,TACAGGTA,0.0151
12,AAATCACT,-0.182
13,AGCGCATC,-0.0682
14,TGCTGAAA,-0.0914
15,ATGCCATG,-0.0824
16,CATCGCGG,0.219
17,AGGAATAT,-0.0199
18,ATTAGGCA,-0.0904
19,GGCGCCCC,0.213
20,CGAGACGA,-0.217
21,GCTTGCAC,0.0293
22,CCTATCAC,0.11

row,Sequence,PBM E-score
1,AAACCGGC,0.268
2,GACCACGA,-0.301
3,ACGAAGCC,-0.0925
4,ATGACGTG,-0.198
5,CTGTACCA,-0.202
6,AATGCTGC,-0.169
7,CACGCGTA,-0.193
8,ACACTAAG,-0.184
9,TCTATGCA,-0.198
10,GGAAAAAC,0.0964
11,GTGCTAGA,-0.0615
12,GCAGTGAC,-0.138
13,GGCATTCA,0.0519
14,AACTAGAT,0.093
15,GACGGCGC,0.199
16,AGCGCAAA,-0.0953
17,GAACATCC,0.187
18,CCCATACC,-0.00943
19,CGTCCTAC,0.0673
20,TCCTTACA,-0.0372
